Measured values from a collection of fitness landscapes (doi:10.1016/j.celrep.2020.107928).
Over roughly 81,000 sequences, “one-hybrid fitness for binding parS DNA” has its median near -0.17; the highest 2% begin near 0.51. Some of the results follow.

B1: Caulobacter ParB omega fusion; a variant is named by its letters at X, in order, B8GW30 (parent)
chain: MESVVVGEPGMSEGRRGLGRGLSALLGEVDAAPAQAPGEQLGGSREAPIEILQRNPDQPRRTFREEDLEDLSNSIREKGVLQPILVRPSPDTAGEYQIVAGERAWRAAQRAGLKTVPIMVRELDDLAVLEIGIIENVQRADLNVLEEALSYKVLMEKFERTQENIAQTIGKSXSHVANXMRLLXLPDEVQSYLVSGELTAXHARAIAAAADPVALAKQIIEGGLSVRETEALARKAPNLSAGKSKGGRPPRVKDTDTQALESDLSSVLGLDVSIDHRGSTGTLTITYATLEQLDDLCNRLTRGI

Variants of: B1
Assay: one-hybrid fitness for binding parS DNA (scaled: cognate 1, non-cognate 0); higher = stronger binding
Details: with parS DNA site
How it was run: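 The reporter was HIS3, with the binding site 19 bp from the promoter, in E. coli USO used for bacterial one-hybrid selection of Caulobacter ParB libraries with four specificity codons randomised. Growth was on M9 lacking histidine, with 0.1 mM IPTG and 5 mM 3-AT, for 48 hours at 37°C. Illumina sequencing covered plasmids before and after selection; three replicate libraries were pooled and variants with under 10 reads dropped. A fitness score is the log change in variant-to-wild-type read ratio, rescaled to the cognate and non-cognate references.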

| Variant | one-hybrid fitness for binding parS DNA |
| --- | --- |
| MGRR | ≤ 0.2 |
| RFKP | ≤ 0.2 |
| QRTM | ≤ 0.2 |
| LQEG | ≤ 0.2 |
| KVAG | ≤ 0.2 |
| QDQA | ≤ 0.2 |
| YLDC | ≤ 0.2 |
| SWLL | ≤ 0.2 |
| PFGL | ≤ 0.2 |
| RGYF | ≤ 0.2 |
| RYWF | 0.258 |
| NVSW | ≤ 0.2 |
| RYNW | 0.208 |
| TEHM | ≤ 0.2 |
| EQLR | ≤ 0.2 |
| PYLE | ≤ 0.2 |
| KTIA | ≤ 0.2 |
| GLHF | ≤ 0.2 |
| LPQT | ≤ 0.2 |
| GRPF | ≤ 0.2 |
| MVIR | ≤ 0.2 |
| RTIA | 0.542 |
| DVRW | ≤ 0.2 |
| PYWC | ≤ 0.2 |

| Variant | one-hybrid fitness for binding parS DNA |
| --- | --- |
| DFST | ≤ 0.2 |
| FRHG | ≤ 0.2 |
| TARN | ≤ 0.2 |
| ASEK | ≤ 0.2 |
| QHFL | ≤ 0.2 |
| SYNS | ≤ 0.2 |
| HEKH | ≤ 0.2 |
| CKNG | ≤ 0.2 |
| YINY | ≤ 0.2 |
| QWLC | ≤ 0.2 |
| QAIE | ≤ 0.2 |
| HIGN | ≤ 0.2 |
| VVNY | ≤ 0.2 |
| SNWV | ≤ 0.2 |
| EYAT | ≤ 0.2 |
| PTKG | ≤ 0.2 |
| LLKV | ≤ 0.2 |
| QHTS | ≤ 0.2 |
| LCTF | ≤ 0.2 |
| TTGP | ≤ 0.2 |
| QEIR | ≤ 0.2 |
| AITG | ≤ 0.2 |
| EHAM | ≤ 0.2 |
| VHLT | ≤ 0.2 |

| Variant | one-hybrid fitness for binding parS DNA |
| --- | --- |
| LMNT | ≤ 0.2 |
| TLWI | ≤ 0.2 |
| DYRV | ≤ 0.2 |
| HHYG | ≤ 0.2 |
| HMWA | ≤ 0.2 |
| GRWC | ≤ 0.2 |
| EARA | ≤ 0.2 |
| VAMK | ≤ 0.2 |
| CMTR | ≤ 0.2 |
| GEAD | ≤ 0.2 |
| RIDA | 0.55 |
| RDEC | ≤ 0.2 |
| ARLK | ≤ 0.2 |
| HSYT | ≤ 0.2 |
| QLAP | ≤ 0.2 |
| RRCS | 0.67 |
| QYAN | ≤ 0.2 |
| IYDG | ≤ 0.2 |
| RKLA | 0.547 |
| APSP | ≤ 0.2 |
| KVVD | ≤ 0.2 |
| YNAG | ≤ 0.2 |
| KCNG | ≤ 0.2 |
| DHTD | ≤ 0.2 |

| Variant | one-hybrid fitness for binding parS DNA |
| --- | --- |
| ACNG | ≤ 0.2 |
| DDQC | ≤ 0.2 |
| RNEF | ≤ 0.2 |
| RTFM | 0.334 |
| CCAC | ≤ 0.2 |
| YRHS | 0.228 |
| ADQT | ≤ 0.2 |
| GCND | ≤ 0.2 |
| RKQI | ≤ 0.2 |
| MKGT | ≤ 0.2 |
| DRTC | ≤ 0.2 |
| ATLV | ≤ 0.2 |
| TNLV | ≤ 0.2 |
| MNFG | ≤ 0.2 |
| VARY | ≤ 0.2 |
| RIDV | ≤ 0.2 |
| TSIT | ≤ 0.2 |
| EEKC | ≤ 0.2 |
| WTKH | ≤ 0.2 |
| PALY | ≤ 0.2 |
| RITG | 0.997 |
| NTGV | ≤ 0.2 |
| KRQY | ≤ 0.2 |
| SADP | ≤ 0.2 |

| Variant | one-hybrid fitness for binding parS DNA |
| --- | --- |
| MAAN | ≤ 0.2 |
| GDAA | ≤ 0.2 |
| KHVT | ≤ 0.2 |
| HSLY | ≤ 0.2 |
| RKYA | 0.579 |
| VPTS | ≤ 0.2 |
| PENV | ≤ 0.2 |
| ITLA | ≤ 0.2 |
| SMRI | ≤ 0.2 |
| YTPN | ≤ 0.2 |
| THGW | ≤ 0.2 |
| NEVL | ≤ 0.2 |
| FADG | ≤ 0.2 |
| KTWR | ≤ 0.2 |
| STVK | ≤ 0.2 |
| QYSY | ≤ 0.2 |
| APTE | ≤ 0.2 |
| WAHT | ≤ 0.2 |
| ARKT | ≤ 0.2 |
| KRRI | ≤ 0.2 |
| YITM | ≤ 0.2 |
| PPTQ | ≤ 0.2 |
| CPAW | ≤ 0.2 |
| GPKW | ≤ 0.2 |

| Variant | one-hybrid fitness for binding parS DNA |
| --- | --- |
| RYMM | 0.287 |
| QGEW | ≤ 0.2 |
| RSSR | ≤ 0.2 |
| SRVD | ≤ 0.2 |
| LNDR | ≤ 0.2 |
| WTVV | ≤ 0.2 |
| QHST | ≤ 0.2 |
| LKAS | ≤ 0.2 |
| MKNS | ≤ 0.2 |
| STGR | ≤ 0.2 |
| DPQL | ≤ 0.2 |
| SMSM | ≤ 0.2 |
| QINN | ≤ 0.2 |
| FTTP | ≤ 0.2 |
| EQMS | ≤ 0.2 |
| WPMR | ≤ 0.2 |
| QRSA | ≤ 0.2 |
| CSRN | ≤ 0.2 |
| YPRG | ≤ 0.2 |
| YAIT | ≤ 0.2 |
| TELI | ≤ 0.2 |
| ETQK | ≤ 0.2 |
| RHVK | ≤ 0.2 |
| ESNT | ≤ 0.2 |

| Variant | one-hybrid fitness for binding parS DNA |
| --- | --- |
| QGLA | ≤ 0.2 |
| NQQF | ≤ 0.2 |
| RRQN | 0.614 |
| IERV | ≤ 0.2 |
| PNPG | ≤ 0.2 |
| CERG | ≤ 0.2 |
| RATP | ≤ 0.2 |
| TKNN | ≤ 0.2 |
| QYCQ | ≤ 0.2 |
| AWLC | ≤ 0.2 |
| FLDC | ≤ 0.2 |
| CPRL | ≤ 0.2 |
| VGFI | ≤ 0.2 |
| YTFV | ≤ 0.2 |
| PYYG | ≤ 0.2 |
| GEGR | ≤ 0.2 |
| HITV | ≤ 0.2 |
| PTVH | ≤ 0.2 |
| CFYC | ≤ 0.2 |
| NMKT | ≤ 0.2 |
| DNPS | ≤ 0.2 |
| LSNE | ≤ 0.2 |
| PNDR | ≤ 0.2 |
| HHFC | ≤ 0.2 |

| Variant | one-hybrid fitness for binding parS DNA |
| --- | --- |
| RAFC | 0.925 |
| MGNR | ≤ 0.2 |
| RGGG | 0.64 |
| KRDH | ≤ 0.2 |
| ANLQ | ≤ 0.2 |
| QIYS | ≤ 0.2 |
| TEAC | ≤ 0.2 |
| RCYD | ≤ 0.2 |
| SQDS | ≤ 0.2 |
| LVMQ | ≤ 0.2 |
| LHGV | ≤ 0.2 |
| PDFW | ≤ 0.2 |
| SMGG | ≤ 0.2 |
| LCPV | ≤ 0.2 |
| VSFY | ≤ 0.2 |
| CRWT | ≤ 0.2 |
| LAVA | ≤ 0.2 |
| FNPY | ≤ 0.2 |
| AMVE | ≤ 0.2 |
| TDRV | ≤ 0.2 |
| AWYC | ≤ 0.2 |
| RVLK | ≤ 0.2 |
| CIGG | ≤ 0.2 |
| VNIS | ≤ 0.2 |

| Variant | one-hybrid fitness for binding parS DNA |
| --- | --- |
| TYTC | ≤ 0.2 |
| VLPR | ≤ 0.2 |
| HESD | ≤ 0.2 |
| QQRW | ≤ 0.2 |
| FCTA | ≤ 0.2 |
| IFKS | ≤ 0.2 |
| WSAE | ≤ 0.2 |
| DCGV | ≤ 0.2 |
| RDAM | ≤ 0.2 |
| EAWA | ≤ 0.2 |
| VPTQ | ≤ 0.2 |
| CETG | ≤ 0.2 |
| HEGS | ≤ 0.2 |
| QAHH | ≤ 0.2 |
| GNST | ≤ 0.2 |
| DVRN | ≤ 0.2 |
| LNDL | ≤ 0.2 |
| MSCS | ≤ 0.2 |
| WAKR | ≤ 0.2 |
| LNGY | ≤ 0.2 |
| WRQP | ≤ 0.2 |
| WCKS | ≤ 0.2 |
| IPTC | ≤ 0.2 |
| CRLV | ≤ 0.2 |

| Variant | one-hybrid fitness for binding parS DNA |
| --- | --- |
| DIEC | ≤ 0.2 |
| FMLS | ≤ 0.2 |
| LKTQ | ≤ 0.2 |
| RPRI | ≤ 0.2 |
| EYER | ≤ 0.2 |
| WNNT | 0.234 |
| WWLW | ≤ 0.2 |
| GWTG | ≤ 0.2 |
| LGCA | ≤ 0.2 |
| RVEH | ≤ 0.2 |
| EFTG | ≤ 0.2 |
| YKSN | ≤ 0.2 |
| GLQM | ≤ 0.2 |
| CCQV | ≤ 0.2 |
| DTCR | ≤ 0.2 |
| HRVV | ≤ 0.2 |
| SPTH | ≤ 0.2 |
| SDYL | ≤ 0.2 |
| CFVL | ≤ 0.2 |
| SGTA | ≤ 0.2 |
| PVCV | ≤ 0.2 |
| WYNT | ≤ 0.2 |
| HVPV | ≤ 0.2 |
| CKAP | ≤ 0.2 |

| Variant | one-hybrid fitness for binding parS DNA |
| --- | --- |
| RIGN | 0.477 |
| TYTS | ≤ 0.2 |
| METY | ≤ 0.2 |
| AYDG | ≤ 0.2 |
| QSHI | ≤ 0.2 |
| AETP | ≤ 0.2 |
| WSTC | ≤ 0.2 |
| HGVE | ≤ 0.2 |
| PGMR | ≤ 0.2 |
| HDVR | ≤ 0.2 |
| SVET | ≤ 0.2 |
| VRAV | ≤ 0.2 |
| LAID | ≤ 0.2 |
| NGLY | ≤ 0.2 |
| WLWS | ≤ 0.2 |
| PHMW | ≤ 0.2 |
| PKPS | ≤ 0.2 |
| NKDL | ≤ 0.2 |
| CRTE | ≤ 0.2 |
| QAQL | ≤ 0.2 |
| FYPR | ≤ 0.2 |
| YLAM | ≤ 0.2 |
| YQES | ≤ 0.2 |
| FRAK | ≤ 0.2 |

| Variant | one-hybrid fitness for binding parS DNA |
| --- | --- |
| YFVC | ≤ 0.2 |
| YPSR | ≤ 0.2 |
| CLFI | ≤ 0.2 |
| RIED | ≤ 0.2 |
| KSRN | ≤ 0.2 |
| FAIC | ≤ 0.2 |
| VMML | ≤ 0.2 |
| WIRG | ≤ 0.2 |
| ARGT | ≤ 0.2 |
| PIMF | ≤ 0.2 |
| GARG | ≤ 0.2 |
| NTAS | ≤ 0.2 |
| QYCL | ≤ 0.2 |
| FAYD | ≤ 0.2 |
| LHRG | ≤ 0.2 |
| LFAV | ≤ 0.2 |
| SWKT | ≤ 0.2 |
| NVRL | ≤ 0.2 |
| QCPE | ≤ 0.2 |
| HSSV | ≤ 0.2 |
| SLGC | ≤ 0.2 |
| GIHS | ≤ 0.2 |
| YADW | 0.201 |
| HMGR | ≤ 0.2 |

| Variant | one-hybrid fitness for binding parS DNA |
| --- | --- |
| LGKC | ≤ 0.2 |
| NRTC | ≤ 0.2 |
| HVLA | ≤ 0.2 |
| PMLS | ≤ 0.2 |
| AVVE | ≤ 0.2 |
| ELRM | ≤ 0.2 |
| PFDR | ≤ 0.2 |
| APRN | ≤ 0.2 |
| EGMG | ≤ 0.2 |
| STWD | ≤ 0.2 |
| ARQF | ≤ 0.2 |
| WKKT | ≤ 0.2 |
| GGAM | ≤ 0.2 |
| SGNC | ≤ 0.2 |
| KHPL | ≤ 0.2 |
| RCCN | 0.369 |
| DCPR | ≤ 0.2 |
| INLR | ≤ 0.2 |
